The source of these data is PMC4336329 (PLoS ONE, 2015).

Among all 310,000 compounds or so, about 2,200 (0.71%) showed an effect of 50% or more. The effect is printed as a negative number. This is one part of the list.

The target of this assay is human ether-à-go-go-related gene (hERG) potassium channel (human, UniProt Q12809). As to the kind of experiment: primary screen, population patch clamp on CHO cells stably expressing hERG.
human ether-à-go-go-related gene (hERG) potassium channel, sequence (Q12809 whole entry, looked up): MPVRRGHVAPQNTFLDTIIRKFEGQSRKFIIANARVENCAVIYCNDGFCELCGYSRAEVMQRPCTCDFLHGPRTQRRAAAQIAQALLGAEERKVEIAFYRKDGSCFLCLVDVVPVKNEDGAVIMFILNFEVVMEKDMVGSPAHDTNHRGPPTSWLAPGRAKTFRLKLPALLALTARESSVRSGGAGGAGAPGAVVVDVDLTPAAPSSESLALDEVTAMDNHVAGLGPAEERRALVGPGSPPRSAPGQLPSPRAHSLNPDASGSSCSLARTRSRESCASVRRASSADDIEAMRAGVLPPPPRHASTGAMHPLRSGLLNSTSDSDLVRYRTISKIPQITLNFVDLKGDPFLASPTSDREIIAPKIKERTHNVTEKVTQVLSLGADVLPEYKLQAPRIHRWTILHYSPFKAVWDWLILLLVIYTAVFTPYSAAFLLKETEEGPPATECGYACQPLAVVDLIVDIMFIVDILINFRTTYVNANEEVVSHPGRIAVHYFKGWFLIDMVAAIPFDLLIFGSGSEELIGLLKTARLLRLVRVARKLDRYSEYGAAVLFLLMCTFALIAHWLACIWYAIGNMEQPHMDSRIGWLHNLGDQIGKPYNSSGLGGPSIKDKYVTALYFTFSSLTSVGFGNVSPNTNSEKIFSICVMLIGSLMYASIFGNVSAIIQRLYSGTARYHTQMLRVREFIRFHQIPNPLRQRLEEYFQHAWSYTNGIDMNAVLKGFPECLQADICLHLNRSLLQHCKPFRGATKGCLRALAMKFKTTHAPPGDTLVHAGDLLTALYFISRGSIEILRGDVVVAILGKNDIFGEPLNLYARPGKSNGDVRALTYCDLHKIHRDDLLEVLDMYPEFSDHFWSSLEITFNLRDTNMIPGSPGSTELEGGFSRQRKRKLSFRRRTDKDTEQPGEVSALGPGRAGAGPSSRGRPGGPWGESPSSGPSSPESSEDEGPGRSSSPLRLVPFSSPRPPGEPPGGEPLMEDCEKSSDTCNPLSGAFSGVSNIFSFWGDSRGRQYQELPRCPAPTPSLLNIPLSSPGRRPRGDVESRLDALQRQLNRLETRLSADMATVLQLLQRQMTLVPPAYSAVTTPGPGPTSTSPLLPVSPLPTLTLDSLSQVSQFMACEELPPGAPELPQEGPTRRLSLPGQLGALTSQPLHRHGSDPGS
`CCN=C1SC(CC(=O)NC(C)C)C(=O)N1CC` (stereo not drawn): the “hERG current change (%, negative = inhibition) at 1uM” value is recorded as -16.1%.
Regarding `O=C(Nc1ccc(Br)cn1)c1ccc(Cl)s1`, the “hERG current change (%, negative = inhibition) at 1uM” value was 12.3%.
The result for `O=C1CCCC2=C1C(Cc1ccccc1)C1=C(CCCC1=O)O2` reads 2.01%.
Under `O=C(Cn1cnc2ccccc2c1=O)Nc1nnc(C2CC2)s1` stands 12.1%; under `COC(=O)c1ccc(COC(=O)c2ccc(N(C)C)cc2)cc1`, 1.63%; under `COc1cc(NC(=O)C/C(C)=N/NC(=O)c2cccs2)c(OC)cc1Cl`, 5.06%.
On to `CN(c1nc2c(c(=O)n(C)c(=O)n2C)n1CC(=O)c1ccccc1)C1CCCCC1`, for which the “hERG current change (%, negative = inhibition) at 1uM” value is on record as 6.38%.
Take `CCOC(=O)c1ccc(S(=O)(=O)NNC(=O)COc2ccccc2C)cc1`: the “hERG current change (%, negative = inhibition) at 1uM” value stood at 18%.
Regarding `CCC[N+]12CCC(CC1)C(C(O)(c1ccccc1)c1ccccc1)C2.[Br-]` (stereo not drawn), the “hERG current change (%, negative = inhibition) at 1uM” value is 6.77%.
Turning to `O=C(NCC1CCCO1)c1ccc(-c2ccccc2Cl)o1` (stereo not drawn), the “hERG current change (%, negative = inhibition) at 1uM” value worked out at 15.8%.
The result for `COc1ccccc1N1CCN(C(=S)Nc2ccc(F)cc2)CC1` reads 15.7%.
Turning to `CCCCNCc1cc2ccccc2o1.Cl`, the “hERG current change (%, negative = inhibition) at 1uM” value was found to be 6.27%.
As to `CC1=Nc2ccccc2/C1=C/c1c(O)n(C)c(=O)[nH]c1=O`, the “hERG current change (%, negative = inhibition) at 1uM” value is 10.9%.
As to `O=C(Cn1cnc2c(nnn2Cc2ccc(F)cc2)c1=O)NCc1ccc2c(c1)OCO2`, the “hERG current change (%, negative = inhibition) at 1uM” value is 1.4%.
Turning to `CCCc1nn2c(=O)cc(CSCC(=O)Nc3ccc(F)cc3)nc2s1`, the “hERG current change (%, negative = inhibition) at 1uM” value is 12.2%.
For `CCOC(=O)c1c(CC(C)C)csc1N`, the “hERG current change (%, negative = inhibition) at 1uM” value is -11.9%.
With `Cc1ccc(S(=O)(=O)[O-])cc1.c1cnc2c(c1)ccc1ccc[nH+]c12`, the “hERG current change (%, negative = inhibition) at 1uM” value is given as 20.7%.
Regarding `Cl.O=C1CSC(c2cn(-c3ccccc3)nc2-c2ccc3c(c2)OCCO3)N1CCN1CCOCC1` (stereo not drawn), the “hERG current change (%, negative = inhibition) at 1uM” value is 7.76%.
Consider `COc1ccc(/C=C/c2ccc(=O)n(Cc3ccccc3)n2)cc1`, for which the “hERG current change (%, negative = inhibition) at 1uM” value is 12.4%.
Consider `C/C(=N\NC(=O)c1ccccc1)c1cc2cc([N+](=O)[O-])ccc2oc1=O`, for which the “hERG current change (%, negative = inhibition) at 1uM” value stood at 5.09%.
Turning to `Cc1ccccc1-c1ccc(/C=C2/SC(N3CCOCC3)=NC2=O)o1`, the “hERG current change (%, negative = inhibition) at 1uM” value was -3.7%.
Regarding `O=C(Nc1ccccc1Oc1ccccc1)C1=COCCO1`, the “hERG current change (%, negative = inhibition) at 1uM” value was 4.63%.
For the compound `Cc1ccc(CNC(=O)CCC(=O)n2ncc3cc(C)ccc32)cc1`, the “hERG current change (%, negative = inhibition) at 1uM” value came to 12%.
The result for `COC(=O)C1(C)NC(c2ccc(O)cc2)C2C(=O)N(c3ccc4c(c3)OCCO4)C(=O)C21` (stereo not drawn) reads 8.41%.
The result for `CC(C)CCN(C(=O)c1cc(=O)[nH]c2ccccc12)c1c(N)n(Cc2ccccc2)c(=O)[nH]c1=O` reads 1.37%; that for `Cc1nn(-c2ccccc2)c(Cl)c1C(=O)Nc1nnc(C2CCCCC2)s1`, 11.9%.
With `CCOC(=O)c1ccc(NC(=O)c2cc(S(=O)(=O)N3CCOCC3)cn2C)cc1`, the “hERG current change (%, negative = inhibition) at 1uM” value is listed as 11.6%.
As for `CC(=O)Nc1ccc(NC(=S)Nc2ccccc2)cc1`, the “hERG current change (%, negative = inhibition) at 1uM” value is given as -4.47%.
For the compound `Cc1ccc(C(=O)NC(=S)NCc2ccco2)cc1`, the “hERG current change (%, negative = inhibition) at 1uM” value was found to be 9.64%.
The result for `S=C(NCc1ccccn1)Nc1cccc(Cl)c1` reads 10.7%.
Regarding `CCCN1C2CCCC1CC(NC(=O)c1cccc(OC)c1)C2` (stereo not drawn), the “hERG current change (%, negative = inhibition) at 1uM” value was 8.52%.
`O=C(NCc1ccccc1)C1CCCN(C(=O)Nc2ccccc2)C1` (stereo not drawn): the “hERG current change (%, negative = inhibition) at 1uM” value turned out to be 19.6%.
Take `CCOC(=O)c1cnn2c(C(F)(F)F)cc(-c3cn(C)nc3C)nc12`: the “hERG current change (%, negative = inhibition) at 1uM” value was 12.5%.
Under `COc1ccc(/C=C/C(=O)Oc2ccc(/C=N/NC(=O)c3ccccc3)cc2)cc1OC` stands 6.42%; under `CCN(CC)S(=O)(=O)c1ccc(-c2nnc(SCC(=O)c3ccc(OC)cc3)o2)cc1`, 5.81%; under `Cc1nccn1-c1cc(C(C)(C)C)nc2c(-c3ccccc3)cnn12`, 2.82%.
As for `CC(=O)Nc1cccc(NC=C(C#N)C#N)c1`, the “hERG current change (%, negative = inhibition) at 1uM” value stood at 15.8%.
With `O=C(CCNS(=O)(=O)c1c(Cl)cccc1Cl)N1CCCC1`, the “hERG current change (%, negative = inhibition) at 1uM” value came out at 11.3%.
Turning to `COc1ccc(N=Nc2ccc3ccccc3c2)c(O)c1`, the “hERG current change (%, negative = inhibition) at 1uM” value came out at 10.1%.
For the compound `O=C(N/N=C/c1ccccc1F)c1csc2c1CCCC2`, the “hERG current change (%, negative = inhibition) at 1uM” value turned out to be 10.2%.
For `COc1ccc(S(=O)(=O)N2CCCCCC2)cc1C(=O)N(C)Cc1c(F)cccc1Cl`, the “hERG current change (%, negative = inhibition) at 1uM” value is on record as 2.91%.
As for `COc1cccc(N2C(=O)CC(N3CCN(c4ccc([N+](=O)[O-])cc4)CC3)C2=O)c1` (stereo not drawn), the “hERG current change (%, negative = inhibition) at 1uM” value is recorded as -7.4%.
For the compound `CC1CCCC(C)N1c1nnc(NC(=O)Cn2c(=O)oc3ccccc32)s1` (stereo not drawn), the “hERG current change (%, negative = inhibition) at 1uM” value is given as 14.3%.
`O=C(N/N=C\c1cccc([N+](=O)[O-])c1O)C1COc2ccccc2O1` (stereo not drawn): the “hERG current change (%, negative = inhibition) at 1uM” value is 9.48%.
Turning to `Cc1nn(Cc2ccccc2)c(Cl)c1C(=O)OCc1nnc(-c2ccccc2)o1`, the “hERG current change (%, negative = inhibition) at 1uM” value stood at 8.89%.
